Laboratory results from a compilation of properties of binary mixtures (doi:10.1021/je900544m).
Some of these densities may be calculated back from excess volumes.

Assay: xn = mol fraction of the nth substance listed
Settings: 101 kPa

C[N+](C)(C)CCO.O=C([O-])C1CCCCC1 + CCO
mass density [kg/m3]
Settings | x2 = 0 | x2 = 0.1001 | x2 = 0.2 | x2 = 0.3 | x2 = 0.4001 | x2 = 0.5 | x2 = 0.6 | x2 = 0.7 | x2 = 0.8 | x2 = 0.9
293.15 K | 1070.7 | – | 1054.6 | – | 1034.5 | 1020.6 | 1003.9 | 977.6 | 939.5 | 884.1
298.15 K | 1067.8 | 1060 | 1051.7 | 1042.8 | – | 1017.5 | 1000.8 | 974.4 | 936.1 | 880.4
303.15 K | – | 1057.1 | 1048.7 | 1039.8 | 1028.4 | 1014.4 | 997.7 | – | 932.7 | –
308.15 K | 1062 | – | 1045.7 | 1036.8 | 1025.3 | 1011.4 | – | 968 | 929.3 | 873
313.15 K | 1059.1 | 1051.2 | 1042.8 | 1033.8 | 1022.3 | 1008.4 | – | 964.8 | 925.9 | 869.3
318.15 K | 1056.2 | – | 1039.8 | – | 1019.3 | 1005.4 | 988.4 | 961.5 | – | 865.6
323.15 K | 1053.3 | 1045.4 | 1036.9 | 1027.8 | – | 1002.4 | 985.3 | 958.3 | 919.1 | 861.8

CCO + C[N+](C)(C)CCO.O=C([O-])C1CCCCC1
x1 = 1
Settings | mass density [kg/m3]
293.15 K | 789.9
303.15 K | 781.3
308.15 K | 777
313.15 K | 772.6
318.15 K | 768.1
323.15 K | 763.6
